The IC50 comes from the fitted curve, where viability falls to half of the control; a fit beyond the top or the lowest dose is shown as a bound at that dose. The AUC spans the tested range (256-fold, ending at the top dose) of the same fit; the more sensitive the line, the further below 1.
Compound: N#CC[C@H](C1CCCC1)n1cc(-c2ncnc3[nH]ccc23)cn1 [Ruxolitinib]
Test: Viability of human cancer cell lines after 72 h of drug (GDSC screen)
Procedure: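 Human cancer cell lines in 384-well plates, medium with 10% serum, drug for 72 h over a 256-fold dose range (nine 2-fold or five 4-fold steps up to the top dose). Adherent lines were fixed and stained with the nucleic acid dye Syto60, suspension lines read with resazurin; signal relative to control wells, capped at 0 and 100%. One two-parameter sigmoid per drug and line, fitted in a mixed model over all curves with the slope shared within a line.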

SH-4 (melanoma, adherent, top dose 5.24 µM)
AUC: 0.964 | IC50: > 5.24 µM

SHP-77 (small cell lung carcinoma, semi-adherent, top dose 5.24 µM)
AUC: 0.99 | IC50: > 5.24 µM

SIG-M5 (acute myeloid leukaemia, suspension, top dose 5.24 µM)
AUC: 0.99 | IC50: > 5.24 µM

SIMA (neuroblastoma, adherent, top dose 5.24 µM)
AUC: 0.977 | IC50: > 5.24 µM

SISO (cervix, adherent, top dose 5.24 µM)
AUC: 0.987 | IC50: > 5.24 µM

SJRH30 (rhabdomyosarcoma, adherent, top dose 5.24 µM)
AUC: 0.985 | IC50: > 5.24 µM

SJSA-1 (bone, adherent, top dose 5.24 µM)
AUC: 0.983 | IC50: > 5.24 µM

SK-CO-1 (large intestine, adherent, top dose 5.24 µM)
AUC: 0.989 | IC50: > 5.24 µM

SK-ES-1 (Ewing sarcoma, semi-adherent, top dose 5.24 µM)
AUC: 0.965 | IC50: > 5.24 µM

SK-GT-4 (oesophagus, adherent, top dose 5.24 µM)
AUC: 0.982 | IC50: > 5.24 µM

SK-HEP-1 (liver, adherent, top dose 5.24 µM)
AUC: 0.989 | IC50: > 5.24 µM

SK-LMS-1 (soft tissue, adherent, top dose 5.24 µM)
AUC: 0.987 | IC50: > 5.24 µM

SK-LU-1 (lung adenocarcinoma, adherent, top dose 5.24 µM)
AUC: 0.981 | IC50: > 5.24 µM

SK-MEL-1 (melanoma, suspension, top dose 5.24 µM)
AUC: 0.993 | IC50: > 5.24 µM

SK-MEL-3 (melanoma, adherent, top dose 5.24 µM)
AUC: 0.982 | IC50: > 5.24 µM

SK-MEL-24 (melanoma, adherent, top dose 5.24 µM)
AUC: 0.97 | IC50: > 5.24 µM

SK-MES-1 (lung squamous cell carcinoma, adherent, top dose 5.24 µM)
AUC: 0.979 | IC50: > 5.24 µM

SK-MG-1 (glioma, adherent, top dose 5.24 µM)
AUC: 0.987 | IC50: > 5.24 µM

SK-MM-2 (myeloma, suspension, top dose 5.24 µM)
AUC: 0.982 | IC50: > 5.24 µM

SK-N-AS (neuroblastoma, adherent, top dose 5.24 µM)
AUC: 0.979 | IC50: > 5.24 µM

SK-N-DZ (neuroblastoma, adherent, top dose 5.24 µM)
AUC: 0.988 | IC50: > 5.24 µM

SK-N-FI (neuroblastoma, adherent, top dose 5.24 µM)
AUC: 0.978 | IC50: > 5.24 µM

SK-N-SH (neuroblastoma, adherent, top dose 5.24 µM)
AUC: 0.977 | IC50: > 5.24 µM

SK-PN-DW (Ewing sarcoma, adherent, top dose 5.24 µM)
AUC: 0.98 | IC50: > 5.24 µM

SK-UT-1 (soft tissue, adherent, top dose 5.24 µM)
AUC: 0.989 | IC50: > 5.24 µM

SKG-IIIa (cervix, adherent, top dose 5.24 µM)
AUC: 0.978 | IC50: > 5.24 µM

SKN (uterus, adherent, top dose 5.24 µM)
AUC: 0.975 | IC50: > 5.24 µM

SKN-3 (head and neck, adherent, top dose 5.24 µM)
AUC: 0.983 | IC50: > 5.24 µM

SLVL (B-cell lymphoma, suspension, top dose 5.24 µM)
AUC: 0.954 | IC50: > 5.24 µM

SN12C (kidney, adherent, top dose 5.24 µM)
AUC: 0.985 | IC50: > 5.24 µM

SNB75 (glioma, adherent, top dose 5.24 µM)
AUC: 0.966 | IC50: > 5.24 µM

SNG-M (endometrium, adherent, top dose 5.24 µM)
AUC: 0.983 | IC50: > 5.24 µM

SNU-61 (large intestine, adherent, top dose 5.24 µM)
AUC: 0.985 | IC50: > 5.24 µM

SNU-81 (large intestine, adherent, top dose 5.24 µM)
AUC: 0.98 | IC50: > 5.24 µM

SNU-175 (large intestine, suspension, top dose 5.24 µM)
AUC: 0.987 | IC50: > 5.24 µM

SNU-182 (liver, adherent, top dose 1.024 µM)
AUC: 0.953 | IC50: > 1.02 µM

SNU-387 (liver, adherent, top dose 5.24 µM)
AUC: 0.974 | IC50: > 5.24 µM

SNU-398 (liver, adherent, top dose 5.24 µM)
AUC: 0.985 | IC50: > 5.24 µM

SNU-407 (large intestine, adherent, top dose 5.24 µM)
AUC: 0.983 | IC50: > 5.24 µM

SNU-423 (liver, adherent, top dose 5.24 µM)
AUC: 0.979 | IC50: > 5.24 µM

SNU-449 (liver, adherent, top dose 5.24 µM)
AUC: 0.962 | IC50: > 5.24 µM

SNU-475 (liver, adherent, top dose 5.24 µM)
AUC: 0.991 | IC50: > 5.24 µM

SNU-1040 (large intestine, adherent, top dose 5.24 µM)
AUC: 0.979 | IC50: > 5.24 µM

SNU-C1 (large intestine, suspension, top dose 5.24 µM)
AUC: 0.952 | IC50: > 5.24 µM

SNU-C2B (large intestine, adherent, top dose 5.24 µM)
AUC: 0.976 | IC50: > 5.24 µM

SNU-C5 (large intestine, adherent, top dose 5.24 µM)
AUC: 0.985 | IC50: > 5.24 µM

SR (lymphoid neoplasm, suspension, top dose 5.24 µM)
AUC: 0.804 | IC50: 2.31 µM

ST486 (Burkitt lymphoma, suspension, top dose 5.24 µM)
AUC: 0.985 | IC50: > 5.24 µM

STS-0421 (soft tissue, adherent, top dose 5.24 µM)
AUC: 0.958 | IC50: > 5.24 µM

SU8686 (pancreas, adherent, top dose 5.24 µM)
AUC: 0.986 | IC50: > 5.24 µM

SU-DHL-1 (anaplastic large cell lymphoma, suspension, top dose 5.24 µM)
AUC: 0.956 | IC50: > 5.24 µM

SU-DHL-4 (B-cell lymphoma, suspension, top dose 5.24 µM)
AUC: 0.997 | IC50: > 5.24 µM

SU-DHL-5 (B-cell lymphoma, suspension, top dose 5.24 µM)
AUC: 0.994 | IC50: > 5.24 µM

SU-DHL-6 (B-cell lymphoma, suspension, top dose 5.24 µM)
AUC: 0.982 | IC50: > 5.24 µM

SU-DHL-8 (B-cell lymphoma, suspension, top dose 5.24 µM)
AUC: 0.988 | IC50: > 5.24 µM

SU-DHL-10 (B-cell lymphoma, suspension, top dose 5.24 µM)
AUC: 0.998 | IC50: > 5.24 µM

SU-DHL-16 (B-cell lymphoma, suspension, top dose 5.24 µM)
AUC: 0.993 | IC50: > 5.24 µM

SUIT-2 (pancreas, adherent, top dose 5.24 µM)
AUC: 0.978 | IC50: > 5.24 µM

SUP-HD1 (Hodgkin lymphoma, suspension, top dose 5.24 µM)
AUC: 0.649 | IC50: 0.827 µM

SUP-M2 (anaplastic large cell lymphoma, suspension, top dose 5.24 µM)
AUC: 0.835 | IC50: 2.35 µM

SUP-T1 (T-cell lymphoblastic leukaemia, suspension, top dose 5.24 µM)
AUC: 0.983 | IC50: > 5.24 µM

SW13 (adrenal gland, adherent, top dose 5.24 µM)
AUC: 0.987 | IC50: > 5.24 µM

SW48 (large intestine, adherent, top dose 5.24 µM)
AUC: 0.987 | IC50: > 5.24 µM

SW156 (kidney, adherent, top dose 5.24 µM)
AUC: 0.979 | IC50: > 5.24 µM

SW626 (ovary, adherent, top dose 5.24 µM)
AUC: 0.983 | IC50: > 5.24 µM

SW684 (fibrosarcoma, adherent, top dose 5.24 µM)
AUC: 0.981 | IC50: > 5.24 µM

SW756 (cervix, adherent, top dose 5.24 µM)
AUC: 0.985 | IC50: > 5.24 µM

SW780 (bladder, adherent, top dose 5.24 µM)
AUC: 0.986 | IC50: > 5.24 µM

SW837 (large intestine, adherent, top dose 5.24 µM)
AUC: 0.982 | IC50: > 5.24 µM

SW872 (soft tissue, adherent, top dose 5.24 µM)
AUC: 0.983 | IC50: > 5.24 µM

SW900 (lung squamous cell carcinoma, adherent, top dose 5.24 µM)
AUC: 0.984 | IC50: > 5.24 µM

SW948 (large intestine, adherent, top dose 5.24 µM)
AUC: 0.981 | IC50: > 5.24 µM

SW954 (urogenital system, adherent, top dose 5.24 µM)
AUC: 0.985 | IC50: > 5.24 µM

SW962 (urogenital system, adherent, top dose 5.24 µM)
AUC: 0.981 | IC50: > 5.24 µM

SW982 (soft tissue, adherent, top dose 5.24 µM)
AUC: 0.983 | IC50: > 5.24 µM

SW1088 (glioma, adherent, top dose 5.24 µM)
AUC: 0.982 | IC50: > 5.24 µM

SW1116 (large intestine, adherent, top dose 5.24 µM)
AUC: 0.983 | IC50: > 5.24 µM

SW1271 (small cell lung carcinoma, adherent, top dose 5.24 µM)
AUC: 0.971 | IC50: > 5.24 µM

SW1417 (large intestine, adherent, top dose 5.24 µM)
AUC: 0.984 | IC50: > 5.24 µM
